This is an account of results in the supplement of paper PMC11417369.

The list shows a part of the results.

The test system of the experiment is PfSIP2 AP2 domain 1 (GST-tagged). In words: gcPBM binding intensity (ln(normalized median fluorescence intensity)); higher = stronger DNA binding. A digest of the protocol:
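Binding of GST-tagged P. falciparum DNA-binding domains, expressed in E. coli and used at about 25 μg on average, was carried out for 1 h in 1× PBS containing 1% milk, 0.2 mg/ml BSA, 0.5% salmon testes DNA and 0.03% Triton X-100. The target was an Agilent 4 × 180k array of primer-extended double-stranded 36-bp intergenic genomic probes plus negative controls, read with Alexa488 anti-GST antibody at 488 nm. Binding intensity is the highest Masliner-normalised natural-log median intensity across replicate spots of either probe orientation.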
“AGTTATTACACACAAACATGCATTAATATCAAAAAA [TGCATGCA_site63]”: the “gcPBM binding intensity (ln)” value is 7.3.
As to “AATTCACATGTGAACTAAAAGAATATTATATATATA [CACACA_negctrl_site1632]”, the “gcPBM binding intensity (ln)” value worked out at 8.12.
Under “AAATATATATATAGTACATGCAGTAGATAATTTAAT [TGCATGCA_site299]” stands 7.16; under “ATTAGGTATTTTTTTTGTACATATTATATAATGTGA [XGTACX_site3815]”, 7.02.
Take “AATGATCAGATATACACACACACAAAAAAAAAAAAA [CACACA_site7806]”: the “gcPBM binding intensity (ln)” value came to 6.99.
Turning to “GTAAATAAATAAATAAATAAATATATATATATATAT [CACACA_negctrl_site1737]”, the “gcPBM binding intensity (ln)” value was 9.32.
Regarding “AATAAAAAAAAATTCACACAAAGTTAGATTAACTAT [CACACA_site4224]”, the “gcPBM binding intensity (ln)” value was found to be 6.6.
Consider TTTATATTTAAAAGGATGCACTACAAATTCTAAATA, for which the “gcPBM binding intensity (ln)” value was determined as 9.22.
Turning to “TATCCTTATATTTGCACACACACACCCTAAAATGAA [CACACA_site1029]”, the “gcPBM binding intensity (ln)” value stood at 7.75.
Under “CTACAATATCTTTAAAGTACTTTTATATAACTACCA [XGTACX_site6119]” stands 7.24; under “AAGACAAATATGAAGAGTACATTTATATAAAAATTA [XGTACX_site5142]”, 6.85.
Under “AAAACAAACAGACACACACACATATTTATATTTATA [CACACA_site7681]” stands 7.04; under “TTATATTAAACAAACACACACATATAAATATAAATA [CACACA_site7174]”, 7.09; under “ATTTTTTCCAATTCTTTACCTTAGAAAGGTGTTCAA [CACACA_negctrl_site1401]”, 6.9.
The value for ATATATTTTTATGTAGTGCATTTAAATAATAAATGC was 8.42; that for “ATATATATATAATGAAGTACGAAAAAATAAGAAATG [XGTACX_site4001]” was 8.33.
Regarding “ACCTCATAATATTTAACACACAAAATTATATGTATG [CACACA_site1704]”, the “gcPBM binding intensity (ln)” value was found to be 7.3.
As for “ATTCTAAATAAATGTACACACAAAAATAAATGTATA [CACACA_site1732]”, the “gcPBM binding intensity (ln)” value stood at 7.34.
Under “AAAAAAAAAAAGATAAATACAAGTTACACAAAAAAA [GTGCAC_negctrl_site664]” stands 6.78.
Take ACGTTGCGACGCAAGGTGCTTATTTTCTTATAAATA: the “gcPBM binding intensity (ln)” value worked out at 8.02.
In the case of “AACAAATTTTTTATTAAACACACAAACATATATATA [CACACA_site8588]”, the “gcPBM binding intensity (ln)” value amounted to 7.27.
Turning to “GCTCATTGAAATTATACACACCAAATATATAAATAT [CACACA_site5385]”, the “gcPBM binding intensity (ln)” value was 7.22.
“TGTGAATATATCTTTAAAAAGGATAAATAATAATTT [CACACA_negctrl_site507]”: the “gcPBM binding intensity (ln)” value was determined as 6.76.
Under “TATGAATATTGCATGTGTACCTATTATCCTTTTAAA [XGTACX_site4311]” stands 7.05.
Turning to “ATAATTATTTTCCCGTGTACTTATTTTTTTCAAGTA [XGTACX_site8843]”, the “gcPBM binding intensity (ln)” value worked out at 7.53.
The value for “ATATAAAATAAAAAAAAAAAAAAAAAAAAAAAAAAA [CACACA_negctrl_site1234]” was 6.92.
Consider “TTAATGTTTGAAAGAGTGCACATAACAAAAAAAAAA [GTGCAC_site9623]”, for which the “gcPBM binding intensity (ln)” value amounted to 11.1.
The value for “TTTTTGTATCCTTTTAATATTAAATAAAAGGAATGT [CACACA_negctrl_site1468]” was 7.02.
“TAATTAAAAAATGAATAAATGAATAAATAAATAAAT [CACACA_negctrl_site838]”: the “gcPBM binding intensity (ln)” value worked out at 6.75.
In the case of “CAATAAATAATAAATACATGCAAGTATGAAGATATA [TGCATGCA_site859]”, the “gcPBM binding intensity (ln)” value came to 6.73.
The value for “TGTTTGATGGTACACGTACACACCTTGCAAATATTT [CACACA_site888]” was 7.36; that for “AATATAAAATAGAAAAATGAAAAAAAAAAAAAGGGT [CACACA_negctrl_site1263]” was 7.54; that for “TATATATATTTTAACACACACATATATATATTTATA [CACACA_site2765]” was 7.28.
The value for “AATAAGAATTAAAAATGTACAAAAAAATGTATTTAT [XGTACX_site8005]” was 6.89; that for “AAGTATAAAATATTTTGTACTTAAAAAATTATATGG [XGTACX_site2180]” was 7.07; that for “CATGTTATATATATATGTACTAAAAATATAATATAA [XGTACX_site1978]” was 7.03.
As to “AGTGGGATTTTTAATTGTACATAAATAATATCATAA [XGTACX_site4163]”, the “gcPBM binding intensity (ln)” value worked out at 6.92.
Take “TTTTTTTTTTTTGGTAGTACATAAATATTTTATGGA [XGTACX_site6851]”: the “gcPBM binding intensity (ln)” value came to 6.96.
Take “TTTGCAACATATAAAAGTACAAATAATATATTTATT [XGTACX_site890]”: the “gcPBM binding intensity (ln)” value was found to be 7.01.
For the sequence “TTTATTATATGCACACGTACATATAATATATATATA [XGTACX_site4108]”, the “gcPBM binding intensity (ln)” value came to 8.68.
As for “AGCAGTTTTTTTTTTTTTTTTTTTTTTATTAAAAGC [XGTACX_negctrl_site392]”, the “gcPBM binding intensity (ln)” value is 6.87.
Take “ATAATAAATCATCATATTACATTTATCTTTGTTGGA [CACACA_negctrl_site849]”: the “gcPBM binding intensity (ln)” value is 7.04.
The value for “TACTTATTTTTATAGCATTTCACGGAGGTAGTAATA [CACACA_negctrl_site468]” was 7.07; that for “AACTGTAATTTTATACGTACATAAATAATATTATAT [XGTACX_site4277]” was 7.28; that for “AACATAATATCATATACACACAAAAATATTGAAATA [CACACA_site2160]” was 6.9.
For the sequence “ATAATACCCATTATCTTACAACAAAATGCAAACAAA [CACACA_negctrl_site1037]”, the “gcPBM binding intensity (ln)” value stood at 7.18.
As to “TTATATAACTTTTCTAGTACTTGTATAAATTCCTAC [XGTACX_site3685]”, the “gcPBM binding intensity (ln)” value amounted to 6.93.
With “AAAAAAAAAGAAAAACGTACGTTTATTTAATATATA [XGTACX_site4018]”, the “gcPBM binding intensity (ln)” value stood at 6.8.
As for “AAGAACATATTATATACATGCATAATTCGATAGATT [TGCATGCA_site882]”, the “gcPBM binding intensity (ln)” value was determined as 6.86.
Regarding “AAAATTAGATTATGCACACACACTTAAAAATAATAA [CACACA_site1975]”, the “gcPBM binding intensity (ln)” value was found to be 8.5.
With “TTAAAATATGTAGCTACACACACATAAACAAAATAA [CACACA_site8244]”, the “gcPBM binding intensity (ln)” value was 7.1.
The value for “TAATTATAATAATAACGTACATATATAAAATGGTGA [XGTACX_site8434]” was 7.21.
For “TTTTTTTTTCTGAATTTATAATTCAAAAATATATAT [CACACA_negctrl_site300]”, the “gcPBM binding intensity (ln)” value is 6.83.
Consider “TGTAGTCTGGAGAAAAGTACACAGTATCTGGTAGCT [XGTACX_site2012]”, for which the “gcPBM binding intensity (ln)” value worked out at 6.95.
Turning to TATATATATATATAGGTGCTATAATTTATATACACA, the “gcPBM binding intensity (ln)” value was determined as 9.36.
“TTTTATTTTTTCTATACATGCATGTCCAATTTTCTT [TGCATGCA_site304]”: the “gcPBM binding intensity (ln)” value worked out at 7.06.
In the case of “TTATGGTATAAAAAAATACACACTTATATATATTCT [CACACA_site488]”, the “gcPBM binding intensity (ln)” value turned out to be 6.83.
The value for “AAAAAAAAAAAAAACACACATACACGCCCACCCATA [CACACA_site3391]” was 7.48; that for “GTTTTTTTATAAAATTTTTATATAATTCTTTTATAA [CACACA_negctrl_site1605]” was 6.99; that for “ATATATAAGAACATATATATTGGAAATATTGAATTT [XGTACX_negctrl_site121]” was 6.93.
On to “TAATAATAAAAAATACGTACATATTATTTATATATG [XGTACX_site853]”, for which the “gcPBM binding intensity (ln)” value was determined as 7.26.
“CATTTTATTCTATATGCATGTTAAAAAATGTGTTGA [TGCATGCA_site128]”: the “gcPBM binding intensity (ln)” value is 7.12.
Regarding “AATAAAAATATTATATGTACATATTTTAATATATAT [XGTACX_site1259]”, the “gcPBM binding intensity (ln)” value is 7.
Under “AAAACTATATTAATGTGTACACATCAAAATATTAAT [XGTACX_site6767]” stands 7.42; under “CAAAATTATCAGAATCGTACATTTTTAACATATAAT [XGTACX_site7909]”, 6.83.
“TTACAAAACACTTATACACACATATATATATATATA [CACACA_site2716]”: the “gcPBM binding intensity (ln)” value is 9.45.
For “TAATATATTAAAAATAGTACATAAGAAAAATAAGTA [XGTACX_site7957]”, the “gcPBM binding intensity (ln)” value came out at 7.11.
In the case of “ATATTTATTTTAATTTTTCTATATAAACTATTATGA [CACACA_negctrl_site739]”, the “gcPBM binding intensity (ln)” value came out at 6.91.
The value for “AGGAAGGAAATAAATCAACACACATATATTATATAT [CACACA_site8678]” was 7.04; that for “TATATATATTATATATGTACATATTGTATATTTTTG [XGTACX_site4564]” was 7.67.
On to “ATTATAAATATCAGTGCACACATTTCTACGCAAAGT [CACACA_site4420]”, for which the “gcPBM binding intensity (ln)” value is 10.4.
Under “TATGTAAAATGTGTTTGTACTTATTTATTATATAAA [XGTACX_site2816]” stands 6.83; under “AAGGAGCCTATGAACACACACATGTACAGATATTAA [CACACA_site6107]”, 7.
For “TGTATTTATAGACACACACACTTTCTTTTTTTAAGA [CACACA_site7010]”, the “gcPBM binding intensity (ln)” value amounted to 7.04.
Regarding “AACAATTAGAACTTTGCACACTTCTATATATTTTGT [CACACA_site674]”, the “gcPBM binding intensity (ln)” value is 7.13.
As for “TACATATATAAAAAAACACACACATATATATATATA [CACACA_site8315]”, the “gcPBM binding intensity (ln)” value was 9.02.
For the sequence “TGTATAATAAGGAAGAGTACAAGTAAATACACACAT [XGTACX_site2084]”, the “gcPBM binding intensity (ln)” value is 7.07.
The value for “TATATATATAACATTGTACACACAAAGAAATAATAT [CACACA_site8998]” was 8.18; that for “ATCGGTATATTATTACATGAATAAACTTACACACAC [TGCATGCA_negctrl_site21]” was 8.04; that for “TATATATAAAATGTATGTACATATTTATTTATATAG [XGTACX_site657]” was 6.87.
Regarding “AAGTGAAATAAAATATGTACATATATGTATATATAA [XGTACX_site4473]”, the “gcPBM binding intensity (ln)” value is 6.97.
Turning to “TTTTTTCTTCGTGTATTAAGTCACAATAGGAAAAAA [GTGCAC_negctrl_site644]”, the “gcPBM binding intensity (ln)” value was determined as 7.09.
Under “AAAAAAAAAGAATGTGAACACACACCGTGAATATAA [CACACA_site8342]” stands 6.62.
Consider “ATGGAAATAAAAAAAAAAAAAAAAAAAAATATATAT [GTGCAC_negctrl_site67]”, for which the “gcPBM binding intensity (ln)” value was found to be 7.18.
“TAGCCCACATTTAATGGTACAGTGAGTATATATATG [XGTACX_site8044]”: the “gcPBM binding intensity (ln)” value worked out at 6.99.
Take “TACATAAAATACCATGCATGCTAGTAAAAAAAAAAA [TGCATGCA_site650]”: the “gcPBM binding intensity (ln)” value was found to be 6.8.
Consider “TAATATATTTATAGAGCATGCAACGTAATATTATTA [TGCATGCA_site863]”, for which the “gcPBM binding intensity (ln)” value was 7.12.
As to “AAAATGCATTTGATGTGTACGCATTATAAAGAACAA [XGTACX_site4203]”, the “gcPBM binding intensity (ln)” value was 7.31.
